The whole screen tested about 48,000 compounds, of which about 1,200 (2.5%) were called active. Inconclusive results (about 2%) are left out.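 How the source made its calls: active means activation of at least 60% and not above a set upper limit (about 1 call in 100 departs from these limits); inconclusive means activation of 40% to 60%, or above that upper limit; inactive means activation under 40%.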 The list shows a part of the results.
Molecular target: Probable G-protein coupled receptor 32 (Homo sapiens) (UniProt O75388)
Assay: qHTS for Agonists of Human Resolvin D1 Receptor DRV1; further: 0% is about no effect
Conditions: CHO-K1 GPR32 beta-arrestin PathHunter luminescence, 90 min; at 76.9 µM; hits give high values; zero percent set by DMSO-only wells
Method in brief: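 Using DMSO wells as EC0, agonist-induced signal was taken as chemiluminescence from beta-Gal reconstituted upon beta-arrestin recruitment to GPR32 in CHO-K1 cells after 90 min compound treatment.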

Chain of UniProt O75388 (O75388 whole entry, looked up): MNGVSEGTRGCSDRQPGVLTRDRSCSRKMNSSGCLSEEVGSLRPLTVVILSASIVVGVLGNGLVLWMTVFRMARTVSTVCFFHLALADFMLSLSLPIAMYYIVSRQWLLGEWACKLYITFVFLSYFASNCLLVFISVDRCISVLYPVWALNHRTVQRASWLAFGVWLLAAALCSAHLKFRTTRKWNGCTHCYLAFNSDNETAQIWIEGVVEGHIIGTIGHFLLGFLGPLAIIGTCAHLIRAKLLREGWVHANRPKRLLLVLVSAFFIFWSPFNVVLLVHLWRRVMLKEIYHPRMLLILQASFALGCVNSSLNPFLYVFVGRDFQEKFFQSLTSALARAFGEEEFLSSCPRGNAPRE

activation, inactive:
Cc1sc(-c2cc3c([nH]c2=O)CC(c2ccccc2)CC3=O)nc1-c1ccc(Cl)cc1 (centres undefined) 37.9%
CCOC(=O)c1c(NC(=O)COc2cccc(C)c2C)sc2c1CCC(CC)C2 (centres undefined) 6.2%
Cn1c(=O)oc2cc(S(=O)(=O)N3CCC(C(=O)N4CCN(c5ccccc5F)CC4)CC3)ccc21 0.958%
COc1cc(Cl)c(C)cc1NC(=O)CC(c1ccc(F)cc1)N1Cc2ccccc2C1=O (centres undefined) -16.7%
CC(C)(C)OC(=O)N1CCC(c2c(C(=O)NCCc3ccccc3)cnn2-c2ccc(F)cc2F)CC1 -29.6%
Cc1ccc(CCNC(=O)c2c(C)oc3ncn(CC(C)C)c(=O)c23)cc1 -4.76%
COc1ccc(-c2c(C)c3ccc(O)c(CN4CCN(CCO)CC4)c3oc2=O)cc1OC -1.94%
O=C(NCc1cccc(F)c1)c1ccc(NC(=O)c2nsc3ccccc23)cc1 -12.1%
CCCCS(=O)(=O)c1oc(-c2ccc(F)cc2)nc1S(=O)(=O)c1ccc(C)cc1 12.7%
COc1ccc(C)cc1NC(=O)Nc1cccc(-c2noc(C)n2)c1 -4.37%
CCc1ccc(NC(=O)Cn2c(=O)n(CCC(=O)NCCc3ccc(Cl)cc3)c(=O)c3ccccc32)cc1 0.616%
Cc1noc(/C=C/c2ccccc2F)c1S(=O)(=O)N1CCC(C(=O)N2CCOc3ccccc32)CC1 -3.06%
COc1ccc(C(=O)Nc2nc(-c3nnn(-c4ccc(C(C)C)cc4)c3C)ns2)cc1 4.64%
COc1ccccc1CCNC(=O)C(C)Sc1nc(-c2ccccc2)cc(C(F)(F)F)n1 (centres undefined) 3.74%
Cc1ccc(-c2cc(-c3ccccc3)c(C#N)c(SCC(O)CS(=O)(=O)Cc3ccccc3)n2)cc1 (centres undefined) -7.78%
COc1ccc(F)cc1S(=O)(=O)Nc1cccc(-c2ccc(N3CCC(C)CC3)nn2)c1 -5.79%
O=C(Cn1ncn2c(cc3ccccc32)c1=O)NCc1ccc(F)cc1 8.48%
CCCOc1ccc(CNC(=O)c2[nH]c3cc(OC)ccc3c2Sc2ccccc2)cc1 -9.33%
CC(=O)Nc1ccc(N(C(=O)Cn2nnc3ccccc32)C(C(=O)NCc2ccccc2)c2ccc(C)cc2)cc1 (centres undefined) -25.7%
COc1ccc(CCNC(=O)c2c(C)oc3ncn(C)c(=O)c23)c(OC)c1 -9.82%
CCN(C(=O)CSc1nc2ccccc2n1Cc1ccc(F)cc1Cl)c1ccccc1 -12.7%
O=C1C(c2ccc(F)cc2)N(CCc2ccccc2)C(=O)CN1C1CCCCCC1 (centres undefined) -4.43%
Cc1ccc2[nH]c(=O)c3cc(C(=O)NCCCN4CCC(C)CC4)sc3c2c1 -2.84%
CCOC(=O)c1c(C)[nH]c(C)c1S(=O)(=O)N1CCC(C(=O)NCc2ccccc2Cl)CC1 5.98%
COc1ccc(C)cc1N(C)C(=O)CCc1nc(-c2ccccc2F)no1 -6.05%
Cc1ccc(Cl)cc1NC(=O)CN1C(=O)CCc2ccccc21 -5.15%
CCCCNc1oc(-c2ccc(COc3ccc(OC)cc3)o2)nc1C#N -12.1%
CCOC(=O)C(Cc1c[nH]c2ccccc12)NC(=O)COc1ccc(CC)cc1 (centres undefined) 0.694%
Cc1cc(NC(=O)CN2CCC(C)CC2)nc2c1c(=O)oc1ccccc12 -10.6%
COc1ccc(CC(=O)NCc2nc3cccnc3n2Cc2ccccc2)cc1 -15.7%
COC(=O)c1ccccc1NC(=O)CCCn1c(=O)c2cccn2c2cccnc21 2.9%
CN(C)c1ccc(Nc2ncnc3sc4c(c23)CCCC4)cc1 3.57%
CCc1cccc(C)c1NC(=O)Cn1nc(C)c2nn(-c3ccc(Cl)cc3)c(C)c2c1=O -16.5%
COc1ccc(/C=C/C(=O)Nc2ccc3nc(N4CCC(C)CC4)cc(C)c3c2)cc1 24.3%
CCCCCCCCCCCCCCCC[n+]1ccccc1 12.3%
CCC1Oc2ccc(Cl)cc2N(CC(=O)NCCc2ccc(Cl)cc2)C1=O (centres undefined) 7.44%
CCCN1Cc2cccc(C(=O)Nc3cccc(C(=O)OCC)c3)c2C1=O -5.04%
COc1ccccc1C(=O)Nc1ccc2oc(-c3cccc4c(Br)cccc34)nc2c1 -4.06%
COc1ccc2c(c1)cc1c(=O)n(CC(=O)NC3CC3)nc(C)n12 -0.977%
CCN(c1ccccc1)S(=O)(=O)c1c(-c2ccc(C)cc2)csc1C(=O)OC -29%
O=[N+]([O-])c1cc(-c2nc(-c3ccccc3)no2)ccc1NC1CCCCC1 -10.1%
O=C(Cc1csc2nc(-c3ccc(F)cc3)cn12)NCc1ccccc1 -9.84%
COc1ccccc1CNC(=O)CCn1c(=O)c2cccn2c2cccnc21 -0.687%
COc1ccc(C2c3cc(OC)c(OC)cc3CC(=O)N2c2ccc(C)c(F)c2)cc1 (centres undefined) -11.9%
C=Cc1ccc(Cn2c(C)c(CNCc3ccccc3C)c(C(=O)O)c2C)cc1 26.5%
Cc1ccc(-c2nnc(Nc3ccc(C(=O)N(C)C)cc3)c3ccccc23)cc1S(=O)(=O)N(C)C 15.9%
Cc1ccc(NC(=O)c2ccc3c(O)c(S(=O)(=O)c4ccccc4)c(=O)[nH]c3c2)cc1Cl 0.0522%
O=C(Nc1nnc(S(=O)(=O)N2CCCCC2)s1)c1ccccc1Br 19.7%
CCN(C(=O)CN1C(=O)COc2ccc(S(=O)(=O)N3CCOCC3)cc21)c1ccc(OC)cc1 -18.7%
O=C(COc1ccc(Cl)cc1)OCc1cc(=O)n2nc(C3CC3)sc2n1 -7.61%
CC(C)(C)CC(=O)NCC(c1ccc2c(c1)OCO2)N1CCOCC1 (centres undefined) -8.04%
O=C(Nc1cccc(F)c1)c1ccc2c(c1)N(Cc1ccccc1)C(=O)c1ccccc1S2(=O)=O -14.1%
Cc1ccc(OCC(=O)Nc2ccccc2OCc2cc(=O)n3ccccc3n2)cc1C -10.7%
Cc1cccc(NC(c2ccccc2F)c2ccc3ccc(C)nc3c2O)n1 (centres undefined) -22.3%
COc1ccc(-c2nc3ccccc3s2)cc1NC(=O)c1ccc(F)cc1 1.5%
CN1[C@@H]2CC[C@H]1CC(NC(=O)n1c(=O)[nH]c3ccccc31)C2 (some centres undefined) -6.51%
COC(=O)c1ccccc1NC(=O)C1CCN(C(=O)N2CC(C)Oc3ccccc32)CC1 (centres undefined) -7.73%
COc1ccc(C(=O)NCC(c2ccc(N(C)C)cc2)N2CCc3ccccc32)cc1OC (centres undefined) -34.7%
N[C@@H](C(=O)N[C@@H]1C(=O)N2C(C(=O)O)=C(Cl)CS[C@H]12)c1ccccc1 -44.6%
O=C(Nc1ncc([N+](=O)[O-])s1)c1cccs1 -39.7%
COc1ccc(OC)c(S(=O)(=O)Nc2cccc(-c3ccc(N4CCCCC4)nn3)c2)c1 9.71%
Cc1ccc(C)c(N2CCN(C(=O)CSCc3ccccc3Cl)CC2)c1 -31.2%
COc1cccc(NC(=O)CC2Nc3cc(C)c(C)cc3NC2=O)c1 (centres undefined) -24.2%
COc1ccc(C(=O)NCc2ccc(OCCN(C)C)cc2)cc1OC -3.16%
Cc1cccc(NC(=O)CCS(=O)(=O)c2cc(Br)cc3c2N(C(=O)C2CC2)CC3)c1 -12.9%
Cc1ccc(CN(Cc2ccco2)C(=O)COc2ccc(C)c(C)c2)cc1 -13.2%
CC(C)(C)c1ccc(C(=O)NCC(c2ccc(Cl)cc2)N2CCOCC2)cc1 (centres undefined) -22.2%
CCc1ccc(S(=O)(=O)Nc2cccc(-c3ccc(N4CCOCC4)nn3)c2)cc1 35.3%
Cc1ccc(CNC(=O)CC2Oc3ccc(Cl)cc3NC2=O)cc1 (centres undefined) -6.34%
CC(=O)c1cccc(NC(=O)CSc2nc3ccccc3nc2Cc2ccc(F)cc2)c1 -11.7%
CC(=O)Nc1ccccc1-c1nc2ccccc2n(CC(=O)Nc2cccc(C(F)(F)F)c2)c1=O -26.3%
Cc1ccc(CO)cc1Nc1ncnc2onc(-c3ccc(F)cc3)c12 -7.07%
CCS(=O)(=O)N1CC(=O)N(c2ccc(Cl)cc2)C(C)(C(=O)NC2CCCCC2)C1 (centres undefined) -2.16%
CCOc1cccc2cc(S(=O)(=O)c3ccccc3F)c(=O)oc12 5.22%
CCN(CC)C(=O)CSc1nc(-c2ccc(C)cc2)nc2c1Cc1c(CO)cnc(C)c1O2 5.88%
COc1cccc(-c2nc(SCC(=O)NC3CCCC3)c(-c3ccc(C)cc3)[nH]2)c1 -25%
CC1=C(C(=O)Nc2ccc(F)cc2F)C2(CCN(C(C)C)CC2)OC1=O 1.5%
CCCOc1cccc(C(=O)Nc2cc(-c3ccccc3)no2)c1 -4.81%
COc1ccc(N2CC(NC(=O)c3ccc(S(=O)(=O)N4CCCCC4)cc3)CC2=O)cc1 (centres undefined) -11.8%
Cc1ccc(C(=O)Nc2c(C)nc3ccccn3c2=O)cc1C -2.94%
CCOc1ccc(CNC(=O)c2ccc3c(c2)nc2n3CCOC2)cc1OC -0.301%

activation, active:
CC(C)(C)c1ccc(C(=O)Nc2onc3c2CCCC3)cc1 88.2%
CC1=C(c2ccc(C(C)C)cc2)S(=O)(=O)N=C1N1CCC(C(=O)NCCc2ccco2)CC1 63.9%
CCc1ccc(NC(=O)CN(c2cc(C)cc(C)c2)S(=O)(=O)c2c(C)[nH]c(=O)[nH]c2=O)cc1 76.5%

Source: PubChem BioAssay AID1346428 (National Center for Advancing Translational Sciences (NCATS), 2018)
